The results in this text go back to paper PMC9561264, “Direct hOGG1-Myc interactions inhibit hOGG1 catalytic activity and recruit Myc to its promoters under oxidative stress” (Nucleic Acids Research, 2022).

In general, stoichiometry N refers to the number of molecules, sites or subunits per partner or assembly.

Data set [1] deals with the molecule itself. Kind of data set: non-reducing SDS-PAGE with anti-His Western blot; 8 uM purified hOGG1 wildtype or cysteine mutant, oxidised (pre-oxidised with 5 uM H2O2); non-reducing 15% SDS-PAGE, mouse anti-His antibody. For orientation: A western blot detects proteins with antibodies after separation by electrophoresis.
Data set [2] concerns the molecule itself. Description: AFM imaging, volume analysis; pre-oxidised hOGG1 (wildtype or mutant, 150 nM) alone with 505 bp oxoG DNA (3 nM), AFM buffer (25 mM HEPES pH 7.5, 25 mM NaCl, 10 mM MgCl2) without DTT; volumes of DNA-bound complexes.

B1: hOGG1 C241A (enzyme)
chain: not shown
notes: human oxoguanine glycosylase 1 (hOGG1) in pETM14, single amino acid mutant made from the wildtype gene by PCR; source: E. coli BL21(DE3), purified (Ni-NTA, MonoQ anion exchange, Superdex 200 SEC); not shown: His6, N-terminal, kept
Regarding B1, in data set [1], the binding result is on record as “binds”.

B2: hOGG1 K249Q (enzyme)
chain: not shown
notes: human oxoguanine glycosylase 1 (hOGG1) in pETM14, single amino acid mutant made from the wildtype gene by PCR; also called catalytically dead hOGG1_(K249Q) variant; source: E. coli BL21(DE3), purified (Ni-NTA, MonoQ anion exchange, Superdex 200 SEC)
On to B2, for which the “stoichiometry N” value in data set [2] came to 2.

B3: hOGG1 C253A (enzyme)
chain: not shown
notes: as for B1
As for B3, the binding result in data set [1] was “binds”.
